In the supplement of paper PMC8728848:
This is one part of the list.

Experiments:
Assay in all cases: glycan array binding signal (z-score within array); higher = stronger binding
Settings in all cases: glycan notation: IUPAC condensed, linker removed
[1] = target: Gal(b1-4)GlcNAc(b1-3)Gal(b1-3)GlcNAc
How it was run: (§1)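 The binding signal is a Z-score computed within each array and averaged over linkers. Arrays of the same protein sequence at different concentrations or buffers were also averaged together. Data originate from 3228 arrays in the Consortium for Functional Glycomics database, kept only where the protein sequence was available.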

[2] = target: Gal(b1-4)GlcNAc(b1-3)Gal(b1-4)Glc
How it was run: as §1

[3] = target: Gal(b1-4)GlcNAc(b1-3)Gal(b1-4)GlcNAc
How it was run: as §1

[4] = target: Gal(b1-4)GlcNAc(b1-3)Gal(b1-4)GlcNAc(b1-2)Man(a1-3)[Gal(b1-4)GlcNAc(b1-3)Gal(b1-4)GlcNAc(b1-2)Man(a1-6)]Man(b1-4)GlcNAc(b1-4)GlcNAc
How it was run: as §1

[5] = target: Gal(b1-4)GlcNAc(b1-3)Gal(b1-4)GlcNAc(b1-2)Man(a1-3)[Gal(b1-4)GlcNAc(b1-3)Gal(b1-4)GlcNAc(b1-2)Man(a1-6)]Man(b1-4)GlcNAc(b1-4)[Fuc(a1-6)]GlcNAc
How it was run: as §1

[6] = target: Gal(b1-4)GlcNAc(b1-3)Gal(b1-4)GlcNAc(b1-2)[Gal(b1-4)GlcNAc(b1-3)Gal(b1-4)GlcNAc(b1-6)]Man(a1-6)[Gal(b1-4)GlcNAc(b1-3)Gal(b1-4)GlcNAc(b1-2)Man(a1-3)]Man(b1-4)GlcNAc(b1-4)GlcNAc
How it was run: as §1

[7] = target: Gal(b1-4)GlcNAc(b1-3)Gal(b1-4)GlcNAc(b1-2)[Gal(b1-4)GlcNAc(b1-3)Gal(b1-4)GlcNAc(b1-6)]Man(a1-6)[Gal(b1-4)GlcNAc(b1-3)Gal(b1-4)GlcNAc(b1-2)Man(a1-3)]Man(b1-4)GlcNAc(b1-4)[Fuc(a1-6)]GlcNAc
How it was run: as §1

[8] = target: Gal(b1-4)GlcNAc(b1-3)Gal(b1-4)GlcNAc(b1-3)Gal(b1-4)GlcNAc
How it was run: as §1

[9] = target: Gal(b1-4)GlcNAc(b1-3)Gal(b1-4)GlcNAc(b1-3)Gal(b1-4)GlcNAc(b1-2)Man(a1-3)[Gal(b1-4)GlcNAc(b1-3)Gal(b1-4)GlcNAc(b1-3)Gal(b1-4)GlcNAc(b1-2)Man(a1-6)]Man(b1-4)GlcNAc(b1-4)GlcNAc
How it was run: as §1

[10] = target: Gal(b1-4)GlcNAc(b1-3)Gal(b1-4)GlcNAc(b1-3)Gal(b1-4)GlcNAc(b1-2)Man(a1-3)[Gal(b1-4)GlcNAc(b1-3)Gal(b1-4)GlcNAc(b1-3)Gal(b1-4)GlcNAc(b1-2)Man(a1-6)]Man(b1-4)GlcNAc(b1-4)[Fuc(a1-6)]GlcNAc
How it was run: as §1

[11] = target: Gal(b1-4)GlcNAc(b1-3)Gal(b1-4)GlcNAc(b1-3)Gal(b1-4)GlcNAc(b1-2)[Gal(b1-4)GlcNAc(b1-3)Gal(b1-4)GlcNAc(b1-3)Gal(b1-4)GlcNAc(b1-6)]Man(a1-6)[Gal(b1-4)GlcNAc(b1-3)Gal(b1-4)GlcNAc(b1-3)Gal(b1-4)GlcNAc(b1-2)Man(a1-3)]Man(b1-4)GlcNAc(b1-4)[Fuc(a1-6)]GlcNAc
How it was run: as §1

[12] = target: Gal(b1-4)GlcNAc(b1-3)Gal(b1-4)GlcNAc(b1-3)Gal(b1-4)GlcNAc(b1-3)Gal(b1-4)GlcNAc(b1-2)Man(a1-3)[Gal(b1-4)GlcNAc(b1-3)Gal(b1-4)GlcNAc(b1-3)Gal(b1-4)GlcNAc(b1-3)Gal(b1-4)GlcNAc(b1-2)Man(a1-6)]Man(b1-4)GlcNAc(b1-4)GlcNAc
How it was run: as §1

[13] = target: Gal(b1-4)GlcNAc(b1-3)Gal(b1-4)GlcNAc(b1-3)Gal(b1-4)GlcNAc(b1-3)Gal(b1-4)GlcNAc(b1-2)Man(a1-3)[Gal(b1-4)GlcNAc(b1-3)Gal(b1-4)GlcNAc(b1-3)Gal(b1-4)GlcNAc(b1-3)Gal(b1-4)GlcNAc(b1-2)Man(a1-6)]Man(b1-4)GlcNAc(b1-4)[Fuc(a1-6)]GlcNAc
How it was run: as §1

[14] = target: Gal(b1-4)GlcNAc(b1-3)Gal(b1-4)GlcNAc(b1-3)Gal(b1-4)GlcNAc(b1-3)Gal(b1-4)GlcNAc(b1-2)[Gal(b1-4)GlcNAc(b1-3)Gal(b1-4)GlcNAc(b1-3)Gal(b1-4)GlcNAc(b1-3)Gal(b1-4)GlcNAc(b1-6)]Man(a1-6)[Gal(b1-4)GlcNAc(b1-3)Gal(b1-4)GlcNAc(b1-3)Gal(b1-4)GlcNAc(b1-3)Gal(b1-4)GlcNAc(b1-2)Man(a1-3)]Man(b1-4)GlcNAc(b1-4)[Fuc(a1-6)]GlcNAc
How it was run: as §1

[15] = target: Gal(b1-4)GlcNAc(b1-3)Gal(b1-4)GlcNAc(b1-3)Gal(b1-4)GlcNAc(b1-3)Gal(b1-4)GlcNAc(b1-3)Gal(b1-4)GlcNAc(b1-2)Man(a1-3)[Gal(b1-4)GlcNAc(b1-3)Gal(b1-4)GlcNAc(b1-3)Gal(b1-4)GlcNAc(b1-3)Gal(b1-4)GlcNAc(b1-3)Gal(b1-4)GlcNAc(b1-2)Man(a1-6)]Man(b1-4)GlcNAc(b1-4)GlcNAc
How it was run: as §1

[16] = target: Gal(b1-4)GlcNAc(b1-3)Gal(b1-4)GlcNAc(b1-3)Gal(b1-4)GlcNAc(b1-3)Gal(b1-4)GlcNAc(b1-3)Gal(b1-4)GlcNAc(b1-2)Man(a1-3)[Gal(b1-4)GlcNAc(b1-3)Gal(b1-4)GlcNAc(b1-3)Gal(b1-4)GlcNAc(b1-3)Gal(b1-4)GlcNAc(b1-3)Gal(b1-4)GlcNAc(b1-2)Man(a1-6)]Man(b1-4)GlcNAc(b1-4)[Fuc(a1-6)]GlcNAc
How it was run: as §1

[17] = target: Gal(b1-4)GlcNAc(b1-3)Gal(b1-4)GlcNAc(b1-3)Gal(b1-4)GlcNAc(b1-3)Gal(b1-4)GlcNAc(b1-3)Gal(b1-4)GlcNAc(b1-2)[Gal(b1-4)GlcNAc(b1-3)Gal(b1-4)GlcNAc(b1-3)Gal(b1-4)GlcNAc(b1-3)Gal(b1-4)GlcNAc(b1-3)Gal(b1-4)GlcNAc(b1-6)]Man(a1-6)[Gal(b1-4)GlcNAc(b1-3)Gal(b1-4)GlcNAc(b1-3)Gal(b1-4)GlcNAc(b1-3)Gal(b1-4)GlcNAc(b1-3)Gal(b1-4)GlcNAc(b1-2)Man(a1-3)]Man(b1-4)GlcNAc(b1-4)[Fuc(a1-6)]GlcNAc
How it was run: as §1

[18] = target: Gal(b1-4)GlcNAc(b1-3)Gal(b1-4)GlcNAc(b1-3)Gal(b1-4)GlcNAc(b1-3)Gal(b1-4)GlcNAc(b1-3)Gal(b1-4)GlcNAc(b1-3)Gal(b1-4)GlcNAc(b1-2)Man(a1-3)[Gal(b1-4)GlcNAc(b1-3)Gal(b1-4)GlcNAc(b1-3)Gal(b1-4)GlcNAc(b1-3)Gal(b1-4)GlcNAc(b1-3)Gal(b1-4)GlcNAc(b1-3)Gal(b1-4)GlcNAc(b1-2)Man(a1-6)]Man(b1-4)GlcNAc(b1-4)GlcNAc
How it was run: as §1

[19] = target: Gal(b1-4)GlcNAc(b1-3)Gal(b1-4)GlcNAc(b1-3)GalNAc
How it was run: as §1

B1: SP16664B-bot-474-25-474 (Bacteroides ovatus) (protein)
chain: CEEDIEIGNKIDESSYLASTQLSGLLLDENTNKNSSVIELRNNEYSTNVVFRLSKLPQKGVDVQIAVEESYAAIYNTIHETDFEVFPAANVKIANNGTFVLAPDDKVTPSVKVTLTAFDGMEEDKTYIVPLTVTSSTEGVTFTETSKHMVLLVQDYRNKPNTNKGEDAVQTVLYFEVNDTNPLNALEFLTESGKYFFDHIVLFAANINWDPEKQRVYLANNENVQFLLDNNDKYLQPLRKAGMKIIISILGNHDEAGVAQLSDMGAREFARELAAYCRAYNLDGVAFDDEYSNSPDLSNPWLASPSAYAGSRLMYECKAVMPEKIVSLYNLGNMYSSSLQVIDGIEPGQYCDYAVADYGGAAGPGTGMTLKQCAGMSIELRRGSGNSSESTARSRKEAGYGYYMFFALDPSLYGSQVYRCQSVCKGLYDETLVYPSYYYKKNSTEREAIN
glycan array binding signal (z-score) [1]: -0.433
glycan array binding signal (z-score) [2]: -0.36
glycan array binding signal (z-score) [3]: 0.066
glycan array binding signal (z-score) [4]: 1.81
glycan array binding signal (z-score) [5]: 0.966
glycan array binding signal (z-score) [6]: 1.08
glycan array binding signal (z-score) [7]: 0.772
glycan array binding signal (z-score) [8]: -0.33
glycan array binding signal (z-score) [9]: 1.88
glycan array binding signal (z-score) [10]: 0.028
glycan array binding signal (z-score) [11]: 2.21
glycan array binding signal (z-score) [12]: 0.189
glycan array binding signal (z-score) [13]: 1.43
glycan array binding signal (z-score) [14]: 0.05
glycan array binding signal (z-score) [15]: 1.01
glycan array binding signal (z-score) [16]: 0.242
glycan array binding signal (z-score) [17]: 0.682
glycan array binding signal (z-score) [18]: 0.32
glycan array binding signal (z-score) [19]: 1.54
